This passage reports self-cleavage results from the RNAGym collection of RNA variant scans (doi:10.7554/elife.90254).

Read counts are not given, so values of variants with three or more changes are uncertain.

Sequences and labels used below:
B1: LINE1-mini (parent)
chain: GGCAGAGCUCAACACAGCGUGGCAAAGUGGCUGUGGCUAGACUGCC

In the series the parent is B1. The series is described as follows: self-cleavage, relative activity (ratio to wild type); higher = more cleavage; in vitro, sequencing; the parent is a self-cleaving ribozyme.
In the case of GGCGGAGCGCAACACAGUGUGGCAAAGUGGAUGUGGCUAGAAUGCC, the self-cleavage turned out to be 0.12.

On to GGCAGAGCUCAACACAACUUGGCAAAGGGGCUGUGGCUAGACUGCC, for which the self-cleavage was 0.51. GCCAGAGCCCAACACAGCCUGGCCAAGUGGCUGUGGCUAGACUGCC: the self-cleavage was 0.01.

In the case of GGCAUAGCUCAACAGAGCGUGGCAAAGUGGCUGUGGCUAGACUGUC, the self-cleavage came out at 0.06. Consider GGCAUAGCUCAACACAGCGUGGCAAAGUGACUGUGGCUAGACUCCC, for which the self-cleavage was 0.08. To GUCAGCGCUCAACACAGCGUGGCAAAGCGGCUGUCGCUAGACUGCC belongs 0.01; to GGCAGAGCUCGACACAGCGUUGCUAAGUGGCUGUGGCUAGACUGCC, 0. The value for GGCAGCGUUCAACACAGCGUGGCAAAGUGGCGGUGGCUAGACUGCC was 0.08. As for GUCAGAGCUAAACACAGCGUGGCAAAGUGGCUGUGGCCAGACUGCC, the self-cleavage came to 0.01. Take GGCAGUGCUCAACACGGCGUGGCAAAGUGGCUGUGGUUUGACUGCC: the self-cleavage was determined as 0.2. Regarding GGCAGAGCGUAUCACAGCGUGGCAAAGUGGCUGUGGCUAGACUGCC, the self-cleavage is 0.05.

On to GGCAGAGCGCAAUACAGCGUUGCAAAGGGGCUGUGGCUAGACGGCC, for which the self-cleavage is 0.36. Consider GGCCGAGCUCAACACAGCGUGGCAAAGUGGCUGUGUCUAGGCUGCC, for which the self-cleavage was determined as 0.05. To GGCAGAGCUCAACACAGCAUGGCAAAAUAGCUGUGGCUUGACUGCC belongs 0.58; to GACAGAGCUCAAAACAGCGUGGCAAAUUAGCUGUGGCUAGAAUGCC, 0.68. The value for GGCAGAGCCGAACACUGCGUGGCAAAGUGGAUGUGGCUUGACUGCC was 0.01.

For the variant GGCAGAGCUCAACACAGCGGGGAAAAGUGGUUGUGGCUAGACCGCC, the self-cleavage is 0.

Turning to GGCAGCGCUCAACACAGCGUGGCAAAGUGGCUGUGGCUAGACUGGG, the self-cleavage was determined as 0.08. To GGCUGAGCUCAACACAGGUUGGCAAUGUGGCUGUGGCUAGACUGCC belongs 0.32. GGCUGAGCUCAACACAGAGUGGCAAAGAGGCUGUGGCUAGACUGCC: the self-cleavage worked out at 0.44.

Regarding CGCAGAGCUCAACACAGCGUGGCAAAGUGGCUGUGGCUGGACUGCU, the self-cleavage was determined as 0.02.

With UGCAUAGCUCAACCCAGCGAGGCAAAGUGGCUGUAGCUAGACUGCC, the self-cleavage was determined as 0.02. With GGCAGAGCUCAACACAGCGAGGCAAAGUGGCUGUAGGUAGACUGCC, the self-cleavage worked out at 0.01.

As to CGGAGAGCUCAACACAGCGUGGCAAAGUGCAUGUGGCUAGCCUGCC, the self-cleavage is 0.04. For GGCAGAGCUCAACAUAGCGUGGCAAAGCGUCGGUGGCUAGACUGCC, the self-cleavage was found to be 0.47.

For the variant UGCAGAGGUCAACACAGCGUGGCAAAGUGGCUGUGGCUAUAUUGCC, the self-cleavage came out at 0.08. To GGCAGAGCUCAACACUGCGUGGCAAAGUGGUUGUGGCUAGACUUCC belongs 0.02; to GGCAGAGCUCAAAACAGCGUGACAAAGUGGCUGUCGCUAGACUGCC, 0.12; to GGCAGAGCUUAACACAGCGUGGCAAAGUGGCUGUGGCUAAACUGCA, 0.05. To GGCAGGGCUCAACACAGCGUGGCAAUAUGGCUGUGGCUAGACUGCC belongs 0.11; to CGCAGAGCUCAACACAGCGUGGCAAAGUGGCUCUGGAUAGACUGCC, 0.01; to GUCAGAUCUCAACACAGCGUGGCAGAGUGGCUAUGGCUAGACUGCC, 0.07. The value for GGCAGAGCUCAACAAAGCGUGGCAACUUGGCUGUGGCUCGACUGCC was 0.11. For GGCAGAGCACAACACAGCGUAGCAAAGUGGCUAUGGCUAGACUGCU, the self-cleavage was 0.14. To GGCAGAGCUCAAUACAGCGUGGCAAAGUGGCUGUCGCUCGAAUGCC belongs 0.03; to GGCAGAGCUCAACACAGCGAGGCAAAGUGGCUGUGGAUAUAAUGCC, 0.03; to GCCAGAGCUCAACACAGCGUGGCUAAGUGGCUGUGGCUAAACCGCC, 0.12. As to GGCAGAGCUCAACACAGCGUGACAAAGUGGCUGUGGGUAGCCUGCC, the self-cleavage turned out to be 0.03. The value for GGCAGAGCACAACACCGCGUGGCAAAGAGGCUGUGUCUAGACUGCU was 0.03; that for GGCACUGCUCAAGACAGCGUGGCAAAGUGGCUGUCGCUAGACUACG was 0.02. The value for GGCAGAGCUCAGCACAGCGUGGCAAAGUGGCUGUGUCUAGACUGCG was 0.01; that for CGCAGAGCACAACACAGCGUGGCAAAGUGGCUGUGGCUAGACUGCA was 0.02; that for GGCAGAGCUCAGCACAGCGUGGCAAAGUGGCUGUCGCUAGACUGCA was 0.05.

On to GGCAGAGCUCACCAGAGAGUGGCAUAGUGGCUGUGGCUAGACUGCC, for which the self-cleavage was determined as 0.02. In the case of GGCAGAGCUCAACAAAGCGUGGCAAUUUGGCUGUGGCUAGACUCCC, the self-cleavage turned out to be 0.01. To GGCAGAGCUCAACACAGCGUGGCAAUGUGGCUGUAGCCAGACUGCC belongs 0.03.

In the case of GGCAGAGGUCAACACAUCGUGGCAUAGUGGCUGUGGCUAGACUGCC, the self-cleavage turned out to be 0.03.

Consider GGCAGAGCGCAACACAGCGUGGCGAAGUGGCUGUGGCUAGACAGCC, for which the self-cleavage turned out to be 0.02. The value for CGCUGAGCUCAACACAGCUUGUCAAAGUGGCUGUGCCUAGACUGCC was 0.06; that for GGCAGAGCUCAACAAAGCGUGGCAAAGUGGCUUUGGCGAGCCUGCC was 0; that for GGCAGAGCUCAACACAGCGUGGCAAAGUGGCUGUGUCUAAACUGCU was 0.09. To UGCAGAGCUCAACACAGCGUGGUAAAGCGGCUGUGGCUAGACUACC belongs 0.07; to GGCACAGCUCAAAACAGCGUUGCAAAGUGGCUGUAGCUAGACUGUC, 0.07; to GGCAUAUCUCAACAGAGCGCGGCAAAGUGGCUGUGGCUAGACUGCC, 0.02.

In the case of GGCAGAGCUCAACUCAGCGUGGCAACGUGUCUGUGGCUAGACUGCC, the self-cleavage is 0.2.

For GUCAGAGAUCAACACAGCGUGGCAAAGUGGCUGUGACUAGAUUGCC, the self-cleavage amounted to 0.06.
